# Measurements as given in PMC6919601, “Identification of Plasmodium dipeptidyl aminopeptidase allosteric inhibitors by high throughput screening” (PLoS ONE, 2019).
# In all, about 110,000 compounds went through this assay and about 230 (0.21%) showed an effect of 50% or more. The list shows a part of the results.
# Molecular target: DPAP1 (Plasmodium falciparum, UniProt Q8IIJ9)
# Test: primary screen, percent inhibition; read by cleavage of a fluorogenic dipeptide substrate; higher = more effect of the substance
# Parameters: species or system P. falciparum D10 trophozoite lysates; single well
# 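Note: 30 min substrate incubation versus DMSO and 10 µM JCP410 controls.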
# DPAP1, sequence (Q8IIJ9 whole entry, looked up): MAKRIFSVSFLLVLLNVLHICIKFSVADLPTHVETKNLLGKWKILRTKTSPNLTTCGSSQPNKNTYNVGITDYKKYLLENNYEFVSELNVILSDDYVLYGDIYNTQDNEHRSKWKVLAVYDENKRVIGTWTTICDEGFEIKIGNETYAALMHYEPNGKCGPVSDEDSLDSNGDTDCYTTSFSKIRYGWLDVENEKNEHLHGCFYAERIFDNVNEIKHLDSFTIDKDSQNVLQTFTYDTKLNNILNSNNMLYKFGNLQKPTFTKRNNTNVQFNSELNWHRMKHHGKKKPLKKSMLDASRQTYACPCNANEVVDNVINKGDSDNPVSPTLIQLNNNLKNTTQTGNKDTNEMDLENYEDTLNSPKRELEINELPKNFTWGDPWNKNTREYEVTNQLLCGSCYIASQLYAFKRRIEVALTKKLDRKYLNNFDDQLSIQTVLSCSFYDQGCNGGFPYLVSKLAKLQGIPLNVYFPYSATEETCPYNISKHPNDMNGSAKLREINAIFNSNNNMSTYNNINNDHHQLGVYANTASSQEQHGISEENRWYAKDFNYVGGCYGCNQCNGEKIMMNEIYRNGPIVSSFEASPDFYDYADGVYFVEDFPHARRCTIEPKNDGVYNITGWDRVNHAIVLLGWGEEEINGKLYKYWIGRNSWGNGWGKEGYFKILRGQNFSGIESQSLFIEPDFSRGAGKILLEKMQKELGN
row,SMILES,% Inhibition @ 10 uM
1,COCCCN1C(=O)S/C(=C/c2ccc(O)c(Cl)c2)C1=O,2.4%
2,Cc1cc(-c2ccccc2)nc2cc(C(=O)NCc3cccs3)nn12,-5.28%
3,O=C(Nc1nc2ccccc2s1)c1ccc(Cl)cc1,-1.17%
4,CCN(CC)C(=O)c1c(NC(=O)c2ccccc2)sc2c1CCCC2,19.3%
5,Cc1ccc(CNC(=O)C2CCCN(S(=O)(=O)N3CCCCCC3)C2)cc1 (stereo not shown),4.36%
6,N#CC(C(N)=O)=C1CCC2(CC1)OCCCCO2,-0.969%
7,COc1ccc2c(CNC3CCCC(C)C3C)c(C(=O)O)n(Cc3ccc(C)cc3)c2c1 (stereo not shown),3.12%
8,CCc1nc2ccccc2c(NC(=O)CN2CCCCC2)c1C,1.9%
9,O=S(=O)(Nc1c(Cl)cc(Cl)c2cccnc12)c1ccccc1,-0.216%
10,CC(C(=O)Nc1ccc(Br)cc1)N1C(=O)c2ccccc2C1=O (stereo not shown),-3.92%
11,COc1cc(CNC(C)(C)CO)cc(Cl)c1OCC(=O)NC(C)(C)C,3.63%
12,Cc1ccc(NCN2C(=O)C3C4C=CC(C4)C3C2=O)cc1Cl (stereo not shown),-4.68%
13,CCOc1ccccc1C1CC(=O)NC2=C1C(=O)CCC2 (stereo not shown),-3.87%
14,O=C(CCCN1C(=O)C(c2ccccc2)Oc2cccnc21)NCc1ccccn1 (stereo not shown),-0.397%
15,CCOc1cc(C2C(C#N)=C(N)OC3=C2C(=O)CC(C)(C)C3)ccc1OCc1ccccc1F (stereo not shown),1.35%
16,O=C(NC1CC1)C1CCC(=O)N1Cc1ccc(F)cc1 (stereo not shown),3.24%
17,CC1CCN(C(=O)CSc2ncnc3c2sc2ccccc23)CC1,2.9%
18,CCOc1ccc(-c2cc(C(=O)O)c3ccccc3n2)cc1,-0.641%
19,COc1ccc(Cl)cc1N(CC(=O)Nc1cccc(Br)c1)S(C)(=O)=O,-7.09%
20,O=C1c2ccccc2C(=O)c2c1ncn2-c1ccccc1,-1.81%
21,COc1ccc(/C=C(\C#N)c2nc3ccccc3[nH]2)cc1,2.94%
22,CCOc1cc2sc(N3CCC(C(=O)N(C)Cc4ccccc4)CC3)nc2cc1Br,-3.34%
23,COc1cc(/C=C2\SC(=O)N(c3ccccc3)C2=O)ccc1OCC(=O)O,0.36%
24,CC(C)CCOc1ccc(CC(=O)O)cc1,1.03%
25,O=c1[nH]c(=O)n(Cc2ccco2)c2c1C(C(F)(F)F)(C(F)(F)F)NC(c1ccncc1)=N2,0.561%

row,SMILES,% Inhibition @ 10 uM
1,CCOC(=O)c1cnn(-c2ccc(Cl)c(Cl)c2)c1N,-9.03%
2,CC(NC(=O)C1CCCN1c1nnc(N2CCCC2=O)s1)c1ccc2c(c1)OCCO2 (stereo not shown),-4.76%
3,COCCn1c(Cc2cccn2C)nnc1SCC(N)=O,-5.58%
4,CC1=C(C(=O)OCc2ccc(C)cc2)C(c2cccc(Cl)c2Cl)CC(=O)N1 (stereo not shown),4.23%
5,CCc1nn(CC(=O)NCc2cccnc2)c(=O)c2cccn12,-1.81%
6,NC(=O)COc1ccc2ccccc2c1Br,-7.32%
7,CCn1cc(C2C(C#N)=C(N)OC3=C2C(=O)CCC3)c(C)n1 (stereo not shown),-1.84%
8,CS(=O)(=O)C1=NSC2=NC(=O)/C(=C\c3ccc(-c4ccccc4)o3)C(=N)N21,-1.58%
9,O=C(c1ccc2c(c1)OCO2)N(Cc1ccccc1)Cc1ccccc1,-3.26%
10,Cc1ccccc1OC(C)C(=O)Nc1nccs1 (stereo not shown),-9.11%
11,CC(=O)Nc1ccc(S(=O)(=O)CO)cc1,1.44%
12,C=CCn1c(SCC(N)=O)nc2c(c1=O)C1(CCCCC1)Cc1ccccc1-2,0.751%
13,Cc1ccccc1OCC(=O)Nc1ccc(S(=O)(=O)N2CCC(C)CC2)cc1,-2.76%
14,CCCCCCc1cc2cc(-c3csc(NC(=O)CCC(=O)N4CCCC4)n3)c(=O)oc2cc1O,5.27%
15,CSc1nc2ccc3nc(NC(=O)c4ccc(F)cc4)sc3c2s1,3.06%
16,CC1(C)CC(=O)C2=C(C1)OC(N)=C(C#N)C21C(=O)N(CCc2ccccc2)c2ccccc21 (stereo not shown),-4.6%
17,CN(CCNC(=O)CN1C(=O)C(c2ccccc2)Oc2cccnc21)C1CCCCC1 (stereo not shown),-2.1%
18,O=C(NCc1cccs1)c1cc2nc(-c3cccs3)cc(C(F)(F)Cl)n2n1,-9.26%
19,COc1ccc(CC/N=C/C2=C(O)CC(c3ccccc3)CC2=O)cc1OC (stereo not shown),-2.15%
20,CCOC(=O)c1c(NC(=O)COCc2cc(-c3cccs3)on2)sc(C)c1C,-6.13%
21,CCN1CCN(Cc2sccc2C)CC1,-2.7%
22,O=C(NC1CCCC1)c1ccccc1Br,2.46%
23,OCCCc1nc2n(n1)C(c1cccs1)C=C(c1ccc(Br)cc1)N2 (stereo not shown),0.913%
24,Cc1ccc(NC(=O)CCC(=O)Nc2ccc(C)c(Cl)c2)cc1Cl,-3.18%
25,COc1ccc(/C=C2/C(=O)N(c3ccccc3)C(=S)N(c3ccccc3OC)C2=O)cc1OC,1.41%

row,SMILES,% Inhibition @ 10 uM
1,Cc1cc(C)n(Cc2ccc(C(=O)NCc3cccs3)o2)n1,-6.79%
2,CC(Cc1ccccc1F)NCCN1CCOCC1 (stereo not shown),0.0792%
3,Cc1cccc(NC(=O)CN2C(=O)N/C(=C/c3cc(C)n(C(C)C)c3C)C2=O)c1,9.01%
4,Cc1cc(C)n2nc(SC(C)C(=O)NCc3cccs3)nc2n1 (stereo not shown),-0.519%
5,Cc1onc(-c2ccccc2)c1C(=O)Nc1ccc(S(=O)(=O)NC(C)(C)C)cc1,4.03%
6,Cc1cc(C(=O)O)cc(S(=O)(=O)Nc2ccccc2)c1C,1.34%
7,COc1cc(OC)cc(C(=O)Nc2ccc(C(=O)c3ccccc3)cc2)c1,-4.15%
8,CCSC1=C(C#N)C2(CCCCC2)C2=C(O)CC(C)(C)CC2=N1,12.4%
9,CCN(CC)C(=O)CSc1nc2ccccc2c(O)c1C(=O)OC,1.68%
10,COC(=O)c1sc2nc(-c3ccccc3)cc(-c3ccc(OC)cc3)c2c1N,2.79%
11,O=C1C2CC=C(Cl)CC2C(=O)N1CC[n+]1ccccc1 (stereo not shown),-1.1%
12,CCCc1cc(C(=O)Nc2ccn(Cc3ccc(C)cc3)n2)no1,-3.77%
13,N#CC1=C(SCc2ccccc2)NC(=O)CC1c1ccc(Br)cc1 (stereo not shown),1.38%
14,CCc1nnc(NC(=O)C2CCCN(c3nnc(-n4cccc4)s3)C2)s1 (stereo not shown),-0.707%
15,Cc1cccc(N2CCN(C(=O)CN3C(=O)c4ccccc4C3=O)CC2)n1,1.88%
16,Clc1ccc(OCCN2CCN(c3nc4ccccc4c4nc(-c5cccnc5)nn34)CC2)cc1,-4.21%
17,CCOc1ccc(C2C(C#N)=C(N)Oc3[nH]nc(C)c32)cc1Br (stereo not shown),3.95%
18,O=C(O)c1cc2cccc(O)c2oc1=O,-2.41%
19,CN1CCc2nc(S)c(C#N)c(-c3cccs3)c2C1,-0.25%
20,O=C1C(=O)N(CNc2ccccc2Cl)c2ccccc21,-0.105%
21,Cc1ccc(C(C)C)c(OCC(O)Cn2cnc3ccccc32)c1 (stereo not shown),-8.67%
22,CC(C)OCCCNC(=O)c1cc2cc3ccc(Cl)cc3nc2o1,1.9%
23,Cc1cc(C)n(C(C)CC(=O)NCc2ccc(OC(C)C)cc2)n1 (stereo not shown),-5.33%
24,Cc1cc(=O)n2nc(-c3ccc([N+](=O)[O-])cc3)sc2n1,-0.902%
25,CCN1CCC(NCc2cccc(C(F)(F)F)c2)CC1,3.48%

row,SMILES,% Inhibition @ 10 uM
1,O=C(Nc1ccc(Cl)c(Cl)c1)c1ccc(C(=O)Nc2ccc(Cl)c(Cl)c2)cc1,0.526%
2,COc1ccc(S(=O)(=O)N(C)CC(=O)Nc2ccc(Cl)c(C(F)(F)F)c2)cc1OC,2.84%
3,Cc1c(Cl)cccc1NC(=O)COc1ccc(S(=O)(=O)NC(C)(C)C)cc1,4.44%
4,CC(=O)Nc1cccc(C(=O)Nc2ccc(NC(C)=O)c(Cl)c2)c1,-10.6%
5,CCOc1ccccc1NC(=O)c1ccoc1C,-1.89%
6,COc1ccc(C2Oc3ccccc3C3CC(c4cccs4)=NN32)cc1O (stereo not shown),39.5%
7,CN1CCCC1CCNC1CCN(CCc2ccccc2)CC1 (stereo not shown),-2.95%
8,CC(=O)c1ccc(NC(=O)CN2C(=O)C3C4c5ccccc5C(c5ccccc54)C3C2=O)cc1 (stereo not shown),1.72%
9,Cc1cc(N2CCN(Cc3ccc4c(c3)OCO4)CC2)n2nc(C)c(-c3ccc(Cl)cc3)c2n1,0.51%
10,Cc1cc(C(=O)NCCC2=CCCCC2)c2c(C)nn(-c3ccccc3)c2n1,3.75%
11,CCn1cc(C(=O)Nc2nccs2)c(=O)c2ccc(C)nc21,1.32%
12,O=C(NCc1nc(-c2ccccc2)no1)c1ccccc1-c1ccccc1,0.486%
13,Cc1onc(-c2ccccc2Cl)c1C(=O)N1CC(C)CC(C)C1 (stereo not shown),-3.27%
14,O=C(O)c1ccc(NS(=O)(=O)c2cccc(C(=O)Nc3ccccc3)c2)cc1,-0.0217%
15,CCCC12CN3CC(C)(CN(C1)C31CCCCC1)C2=O,2.25%
16,CC(NC(=O)/C(C#N)=C/c1ccc(Cl)c(Cl)c1)c1ccccc1 (stereo not shown),3.34%
17,COC(=O)C1=CN(Cc2ccc(F)cc2)C=C(C(=O)OC)C1c1ccc(C(F)(F)F)cc1,-1.46%
18,O=S(=O)(NCCc1ccccc1)c1ccc(F)cc1,-3.04%
19,O=C(Cc1ccccc1)Nc1cccc(NC(=O)Cc2ccccc2)n1,-6.79%
20,O=C(c1ccc(F)cc1)N1N=C(c2ccccc2)CC1c1ccc2c(c1)OCO2 (stereo not shown),-5.82%
21,CCOC(=O)c1oc2ccc3c(c2c1C)C(=O)CC(C)(c1ccc(F)cc1)O3 (stereo not shown),4.79%
22,Cc1cc(C)n(CC(=O)n2c(C)c(C)c3ccccc32)n1,0.884%
23,O=c1c(-c2ccccc2)c(O)c2c(n1-c1ccccc1)CCCC2,-4.67%
24,COc1ccc(N(CC(=O)Nc2ccccc2F)S(C)(=O)=O)cc1OC,4.83%
25,CCC(=O)c1ccc(N2CCN(C(=O)c3cccc(F)c3F)CC2)c(F)c1,1.59%
